Experimental data from the supplement of paper PMC7125110.
± gives the standard error. Variants at the floor of the assay are shown more often than the library holds them.

B1: glmS ribozyme (parent)
chain: AUAAAAGCGCCAGAACUACAGAAAUGUAGUUGACGAGGAGGAGGUUUAUCGAAUUUUCGGCGGAUGCCUCCAAA

Assays:
Conditions in all cases: with glucosamine-6-phosphate
[1] = variants of: B1; assay: self-cleavage kobs at 640 uM GlcN6P; higher = faster cleavage; RNA array
Procedure, shortened: (§1)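 Glucosamine-6-phosphate, from 40 μM to 10 mM in HEPES/KCl/Mg(OAc)2 buffer, was flowed over sequenced MiSeq chips carrying barcoded ribozyme variants transcribed in situ by E. coli RNA polymerase. A hybridised Cy3 probe tracked the variants at 37 °C as tiles were imaged over ~14 h. kobs, kcat and KM were obtained by fitting normalised per-tile medians to exponential decays and then applying weighted Michaelis–Menten fits across concentrations.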

[2] = variants of: B1; assay: self-cleavage kobs at 160 uM GlcN6P; higher = faster cleavage; RNA array
Procedure, shortened: as §1

[3] = variants of: B1; assay: self-cleavage kobs at 10000 uM GlcN6P; higher = faster cleavage; RNA array
Procedure, shortened: as §1

[4] = variants of: B1; assay: self-cleavage kobs at 2500 uM GlcN6P; higher = faster cleavage; RNA array
Procedure, shortened: as §1

Row | Variant | self-cleavage kobs at 640 uM GlcN6P [1] [s⁻¹] | self-cleavage kobs at 160 uM GlcN6P [2] [s⁻¹] | self-cleavage kobs at 10000 uM GlcN6P [3] [s⁻¹] | self-cleavage kobs at 2500 uM GlcN6P [4] [s⁻¹]
1 | AUAAAAGCGCCAGAACUACAGAAAUGUAGUUGCCGAGGAAGAGGUUUAUCGAAUUUUCGGCGGAUGCCUCCAAA [A33C G40A] | < 1e-05 | < 1e-05 |  | 
2 | AUAAAAGCGCCAGAACUACAGAAAUGUAGUUGCCGAGGAGGAGAUUUAUAGAAUUUUCGGCGGAUGUCUCCAAA [A33C G44A C50A C67U] | < 1e-05 |  |  | 
3 | AUAAAAGCGCCAGAACUACAGAAAUGUAGUUGCCGAGGAGGAGCUUUAUCGAAUUUUUGGAGGAUGCCUCCAAA [A33C G44C C58U C61A] | < 1e-05 |  |  | 
4 | AUAAAAGCGCCAGAACUACAGAAAUGUAGUUGCCGAGGAGGAGGUUUAUCGAAUUUUCGGCGUAUGUCUGCAAA [A33C G63U C67U C70G] | < 1e-05 |  | < 1e-05 | 
5 | AUAAAAGCGCCAGAACUACAGAAAUGUAGUUGCCGAGGAGGAGGCUAGUCGAAUUUUCGGCGGAUGCCUCCAAA [A33C U45C U47A A48G] | < 1e-05 |  |  | 
6 | AUAAAAGCGCCAGAACUACAGAAAUGUAGUUGCCGAGGAGGAGGUUUAUCGAAUUUUCGGCGGAAGCCUCCAAA [A33C U65A] | < 1e-05 |  |  | 
7 | AUAAAAGCGCCAGAACUACAGAAAUGUAGUUGGCGGGUACGAGGUUUAUCGAAUUUUCUGCGGAUGACUCGAAA [A33G A36G G38U G40C G59U C67A C71G] | < 1e-05 |  |  | < 1e-05
8 | AUAAAAGCGCCAGAACUACAGAAAUGUAGUUGGCGGGGAGGAGGUUUAUCGAAUUUUCGCCGGAUGCCUCCAAA [A33G A36G G60C] | < 1e-05 | < 1e-05 |  | 
9 | AUAAAAGCGCCAGAACUACAGAAAUGUAGUUGGCGAGGAGGCGGUUUAUCGAGUUUUCGGCGGAUGCCUCCAAA [A33G A42C A53G] | < 1e-05 | < 1e-05 |  | < 1e-05
10 | AUAAAAGCGCCAGAACUACAGAAAUGUAGUUGGCGAGGAGGAGGUUUGUCGAAUUUUCGUCGGAUGCCUCCAAA [A33G A48G G60U] | < 1e-05 |  | < 1e-05 | < 1e-05
11 | AUAAAAGCGCCAGAACUACAGAAAUGUAGUUGGCGAGGAGGAGGUUUGGCGAAUUUUUGGCGGAUGCCUCCAAA [A33G A48G U49G C58U] | < 1e-05 | < 1e-05 |  | 
12 | AUAAAAGCGCCAGAACUACAGAAAUGUAGUUGGCGAGGAGGAGGUUUAUCGGAUUUUCGGCGGAUGGAUCCAAA [A33G A52G C67G C68A] | < 1e-05 |  |  | 
13 | AUAAAAGCGCCAGAACUACAGAAAUGUAGUUGGCGAGGAGGAGGUUUAUCGGAGUUUCGGCGGAUGCCUCCAAA [A33G A52G U54G] | < 1e-05 |  |  | 
14 | AUAAAAGCGCCAGAACUACAGAAAUGUAGUUGGCGAGGAGGAGGUUUAUCGAUGUAUCGUCGGAUGCCUCCAAA [A33G A53U U54G U56A G60U] | < 1e-05 |  | < 1e-05 | 
15 | AUAAAAGCGCCAGAACUACAGAAAUGUAGUUGGGGAGGAGGAGGUUUAUCGAAUUUUCGGGGGAUGCCUCCAAA [A33G C34G C61G] | < 1e-05 |  |  | 
16 | AUAAAAGCGCCAGAACUACAGAAAUGUAGUUGGCGAGGAGGAGGUUUAUCGAAUUUUCGGCGGAUGGCCUCAAA [A33G C67G U69C C70U] | < 1e-05 |  |  | 
17 | AUAAAAGCGCCAGAACUACAGAAAUGUAGUUGGCUAUGAGGAGGUAUAUCGAAUUUUCUACGGAUGCCUCCAAA [A33G G35U G37U U46A G59U G60A] | < 1e-05 |  |  | < 1e-05
18 | AUAAAAGCGCCAGAACUACAGAAAUGUAGUUGGCGAAGAGGAGGUUUAUCGAGUUUUCGGCGGAUGCCUCCAAA [A33G G37A A53G] | < 1e-05 |  |  | 
19 | AUAAAAGCGCCAGAACUACAGAAAUGUAGUUGGCGAGCAGGCGGUUUAUCGUAUUUUCGGCGGAUGCCUGCAAA [A33G G38C A42C A52U C70G] | < 1e-05 |  |  | 
20 | AUAAAAGCGCCAGAACUACAGAAAUGUAGUUGGCGAGGAAGAGGUUUAUCGAAUUUUCGGCGGAUGACUCCAAA [A33G G40A C67A] | < 1e-05 |  |  | < 1e-05
21 | AUAAAAGCGCCAGAACUACAGAAAUGUAGUUGGCGAGGAAGAGGUUUAUCGAAUUUUCGGCGGAUGCCUUCAAA [A33G G40A C70U] | < 1e-05 |  |  | < 1e-05

Row | Variant | self-cleavage kobs at 640 uM GlcN6P [1] [s⁻¹] | self-cleavage kobs at 160 uM GlcN6P [2] [s⁻¹] | self-cleavage kobs at 10000 uM GlcN6P [3] [s⁻¹] | self-cleavage kobs at 2500 uM GlcN6P [4] [s⁻¹]
22 | AUAAAAGCGCCAGAACUACAGAAAUGUAGUUGGCGAGGACGAGGUUUAUCGAAUUUUCGGCAGAUGCCUCCAAA [A33G G40C G62A] | < 1e-05 |  |  | < 1e-05
23 | AUAAAAGCGCCAGAACUACAGAAAUGUAGUUGGCGAGGAGAAGGUUUAUCGAAUUUUCGGCGGAUGCCUACAAA [A33G G41A C70A] | < 1e-05 | < 1e-05 |  | 
24 | AUAAAAGCGCCAGAACUACAGAAAUGUAGUUGGCGAGGAGCAGGUUUAUCGAAUUUUCGGCGUAUGCCUCCAAA [A33G G41C G63U] | < 1e-05 |  | < 1e-05 | 
25 | AUAAAAGCGCCAGAACUACAGAAAUGUAGUUGGCGAGGAGGAGUUUUAUCGAAUUUUCGGCGGAUGCCUCCAAA [A33G G44U] | < 1e-05 | < 1e-05 | < 1e-05 | 
26 | AUAAAAGCGCCAGAACUACAGAAAUGUAGUUGGCGAGGAGGAGGUUUAUCGAAUUUUCGCCGGAUGCGUCCAAA [A33G G60C C68G] | < 1e-05 |  |  | 
27 | AUAAAAGCGCCAGAACUACAGAAAUGUAGUUGGCGAGGAGGAGGUGUAUCGAAUUUUCGGCGGCGGCCUCCAAA [A33G U46G A64C U65G] | < 1e-05 | < 1e-05 |  | < 1e-05
28 | AUAAAAGCGCCAGAACUACAGAAAUGUAGUUGGCGAGGAGGAGGUUUAUCGAAGUUUCGGCGGAUGUCUCCAAA [A33G U54G C67U] | < 1e-05 |  |  | 
29 | AUAAAAGCGCCAGAACUACAGAAAUGUAGUUGUCGCGGAGGAAGUUUAUCGAAUUUUCGGCGGAUGCCUGCAAA [A33U A36C G43A C70G] | < 1e-05 | < 1e-05 |  | < 1e-05
30 | AUAAAAGCGCCAGAACUACAGAAAUGUAGUUGUCGAGGAGGGGGUUUAUCGAAUUUUCGGCGGAUGCAUCCAAA [A33U A42G C68A] | < 1e-05 |  |  | < 1e-05
31 | AUAAAAGCGCCAGAACUACAGAAAUGUAGUUGUCGAGGAGGGGGUUAAUCGAAUUUUCGGCGGUUGCCUCCAAA [A33U A42G U47A A64U] | < 1e-05 |  |  | < 1e-05
32 | AUAAAAGCGCCAGAACUACAGAAAUGUAGUUGUCGAGGAGGUGUUUUAUCGGAUUCUCGGCGGAUGCCUCCAAA [A33U A42U G44U A52G U56C] | < 1e-05 | < 1e-05 |  | < 1e-05
33 | AUAAAAGCGCCAGAACUACAGAAAUGUAGUUGUCGAGGAGGAGGUUUCUCGAAUUUUCGGCGGAUGCUUCCAAA [A33U A48C C68U] | < 1e-05 |  |  | < 1e-05
34 | AUAAAAGCGCCAGAACUACAGAAAUGUAGUUGUCGAGGAGGAGGUUUGUCGAUUUUUCGGCGGAUGCCUCCAAA [A33U A48G A53U] | < 1e-05 |  |  | 
35 | AUAAAAGCGCCAGAACUACAGAAAUGUAGUUGUCGAGGAGGAGGUUUAUCGCACUUUCGGCGGAUGCCUCCAAA [A33U A52C U54C] | < 1e-05 |  |  | 
36 | AUAAAAGCGCCAGAACUACAGAAAUGUAGUUGUUGAGGAGGAGGUUUAUCGAAUUUUCGGCGGAUGCCUGCAAA [A33U C34U C70G] | 0.00168 ± 0.00079 |  |  | 
37 | AUAAAAGCGCCAGAACUACAGAAAUGUAGUUGUUGAGGAGGAGGUGUAUCGAAUUUUCGGCGGAUGCCUCCAAA [A33U C34U U46G] | < 1e-05 |  |  | < 1e-05
38 | AUAAAAGCGCCAGAACUACAGAAAUGUAGUUGUCGAGGAGGAGGUUUAUUGAAUUUUCAGCGGAUGCCUCCAAA [A33U C50U G59A] | < 1e-05 |  |  | < 1e-05
39 | AUAAAAGCGCCAGAACUACAGAAAUGUAGUUGUCGAGGAGGAGGUUUAUCGAAUUUUCGGCGGAUGCCUCUAAA [A33U C71U] | 3.01e-05 ± 7.2e-06 |  |  | 
40 | AUAAAAGCGCCAGAACUACAGAAAUGUAGUUGUCGAUGAGGAGGAUUAUCGAAUGUUCGGCGGAUCCCUCCAAA [A33U G37U U45A U55G G66C] | < 1e-05 |  |  | < 1e-05
41 | AUAAAAGCGCCAGAACUACAGAAAUGUAGUUGUCGAGUAGGAGGUUUGUCGAAUUUUCGGCGGAUGCCUCCAAA [A33U G38U A48G] | < 1e-05 |  |  | < 1e-05
42 | AUAAAAGCGCCAGAACUACAGAAAUGUAGUUGUCGAGUAGGAGGUUUAUCGAAUUUUCGGCGUAUGCCUCCAAA [A33U G38U G63U] | < 1e-05 | < 1e-05 |  | < 1e-05
